# The supplement of paper PMC3334620
# Over roughly 33,000 sequences, “E-score (-0.5 to 0.5)” has its median near -0.012; the highest 2% begin near 0.29. Some of the results follow.
# Biological target: T1, Ybr033w (UniProt P38073)
# T1 sequence: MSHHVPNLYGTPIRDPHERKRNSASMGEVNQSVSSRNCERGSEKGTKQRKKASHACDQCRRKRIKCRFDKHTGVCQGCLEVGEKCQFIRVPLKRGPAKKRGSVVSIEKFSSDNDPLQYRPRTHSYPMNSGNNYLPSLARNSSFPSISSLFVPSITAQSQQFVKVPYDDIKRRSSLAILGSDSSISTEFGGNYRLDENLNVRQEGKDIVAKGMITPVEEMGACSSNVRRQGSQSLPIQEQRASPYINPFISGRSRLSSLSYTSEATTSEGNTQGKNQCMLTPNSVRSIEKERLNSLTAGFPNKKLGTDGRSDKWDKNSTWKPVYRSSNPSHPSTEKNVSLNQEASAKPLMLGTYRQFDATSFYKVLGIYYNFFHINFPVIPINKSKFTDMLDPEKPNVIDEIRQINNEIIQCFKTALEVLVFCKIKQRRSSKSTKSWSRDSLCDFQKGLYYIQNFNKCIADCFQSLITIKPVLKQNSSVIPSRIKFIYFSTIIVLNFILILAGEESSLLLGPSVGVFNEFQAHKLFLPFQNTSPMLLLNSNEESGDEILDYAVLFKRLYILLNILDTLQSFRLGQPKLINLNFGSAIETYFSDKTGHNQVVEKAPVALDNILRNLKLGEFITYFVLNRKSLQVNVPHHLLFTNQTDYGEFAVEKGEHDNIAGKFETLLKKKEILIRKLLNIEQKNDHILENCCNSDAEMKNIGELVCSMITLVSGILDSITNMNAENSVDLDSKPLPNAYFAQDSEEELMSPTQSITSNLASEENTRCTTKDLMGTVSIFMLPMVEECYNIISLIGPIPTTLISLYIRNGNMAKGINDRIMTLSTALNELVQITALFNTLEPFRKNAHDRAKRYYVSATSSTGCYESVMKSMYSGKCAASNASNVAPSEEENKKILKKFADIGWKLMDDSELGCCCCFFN
# Assay: PBM E-score (8-mer binding enrichment) (E-score (-0.5 to 0.5)); higher = stronger / more preferred TF binding; most listed sequences are background and not binding sites
# Settings: protein concentration: 200 nM; construct: GST-full length
# Description: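 Universal 'all 10-mer' protein binding microarrays (Agilent AMADID 015681) probed with GST-tagged S. cerevisiae TFs (full-length or DBD) made by in vitro transcription/translation (PURExpress), about 100-200 nM. Bound TF was detected with fluorescent anti-GST. Each ungapped 8-mer (which stands for itself and its reverse complement) is scored by the PBM enrichment score (E-score), a modified Wilcoxon-Mann-Whitney statistic from -0.5 to +0.5, computed with the Universal PBM Analysis Suite. Scale: above 0.35 generally sequence-specific binding.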
row,Sequence,PBM E-score
1,CCCGACAC,-0.406
2,ATCCCATA,0.0403
3,CAAGTTGG,0.0144
4,CATGGTCC,-0.282
5,ATACTGCG,-0.0707
6,AGTCACAA,0.0701
7,AGTGCATA,-0.0691
8,ATCTCCCC,-0.185
9,ACAAATTA,0.328
10,ATGGGTCA,-0.229
11,CCATCCCA,-0.249
12,AATGTGTC,0.0716
13,TGACACAA,0.0666
14,CCCTTAGA,-0.117
15,CGTTCTCA,-0.0566
16,GGTTCGAC,-0.203
17,CAACCATC,-0.117
18,AACGGGCC,-0.236
19,CAGAGAGC,-0.269
20,ACTACGCA,-0.163
21,AGAATTAC,0.181
22,CCAGACCA,-0.02
23,GAATGTCA,-0.166
24,CTCACACA,0.0175
25,GCTAGAAA,0.164

row,Sequence,PBM E-score
1,CTATGCAC,-0.134
2,TGAGCCAA,0.0416
3,GACACACC,-0.0728
4,AAGAATTG,0.2
5,GATGCGCC,-0.131
6,CAACTGGA,0.00332
7,TAGCCATA,0.00786
8,ATGGGAGC,-0.0911
9,ACGCTAGC,-0.242
10,ACGAACGG,0.0298
11,CAAGCGAG,0.0936
12,CATCCCCA,-0.12
13,GCATAGAA,0.132
14,AATAGAGA,0.0991
15,CATTAATA,0.321
16,ACGTCTCG,-0.0293
17,GTGGAGTA,-0.0194
18,ACCCAGTA,-0.18
19,AACCGTGG,-0.115
20,CCGCGCGC,-0.0806
21,CTGCTGCC,-0.219
22,ATCTCTTA,-0.0332
23,GGTAGACA,-0.0144
24,ATGTGCAC,-0.113
25,AGAGTCCC,-0.244

row,Sequence,PBM E-score
1,AAGCAGCT,0.0186
2,ATTTACAG,0.149
3,AAGTGTCT,0.0707
4,AAAGAGTC,-0.181
5,GCACCGCA,-0.226
6,ACAGATTC,0.088
7,GTACATAA,0.171
8,AGGTGAAG,-0.0382
9,TGTCGACA,-0.2
10,AAGGAATT,0.122
11,ACTGCAGC,-0.136
12,ATCGGCAA,0.00152
13,ACCGCCAC,-0.142
14,GCCGCCCC,-0.239
15,AACGCGGG,0.048
16,AATGAAAC,0.169
17,CACCGAGG,-0.15
18,GATCAAGA,0.0926
19,CATCAGCC,-0.0333
20,ACCCTGGG,-0.272
21,ACCTCCTG,-0.0317
22,AAACTCGG,0.0555
23,CCAGCCAG,-0.359
24,AGATATTA,0.215
25,TACCTTCA,-0.0427

row,Sequence,PBM E-score
1,GCGATCCA,0.0348
2,AGACGCCA,0.00347
3,CGACGCCC,-0.0903
4,CCGCTTAA,0.118
5,ACCTGGGG,-0.294
6,AGGCTATA,0.0337
7,GGACTGGA,-0.0697
8,TAAGAGTA,0.187
9,CCAGAGGC,-0.183
10,CTGCATTA,-0.0228
11,CATGATCA,0.106
12,AAGAGCAG,-0.163
13,GATCGTCA,-0.00934
14,GGTTTATA,-0.0134
15,ACTCGGAT,0.0587
16,GCACAACA,0.0301
17,TCGCTCCA,-0.0972
18,AAGCTATG,0.0673
19,GGTCGCTA,-0.0803
20,AGGACGCA,-0.195
21,CCCCGCGG,-0.295
22,ACCACTGC,-0.18
23,AGAGAACT,-0.0198
24,CCGGTGTC,-0.13
25,ACAGCGTG,-0.00758

row,Sequence,PBM E-score
1,ACTTGGTG,-0.0338
2,GACTTCAA,-0.116
3,CGCACGAA,0.0656
4,AGCCCGAA,-0.145
5,CAAGTCGA,-0.0109
6,CATTTTAA,0.16
7,CCGCGATA,0.0153
8,AGCTCCAG,-0.227
9,GCCGGTTA,-0.0903
10,GCACGAGA,0.0172
11,CACGTGAC,-0.101
12,CAATTAGA,0.206
13,GCTTTTGA,-0.134
14,CATCATGG,-0.083
15,AATAATCA,0.234
16,CTCTTCAC,-0.0171
17,CCATCGGC,-0.154
18,ACGTGAGT,-0.186
19,ACTGGGAA,0.111
20,GAAGTATC,0.152
21,AAGTTATG,0.206
22,ATCTACGA,0.0113
23,CAACCAGG,-0.151
24,AATCGCTC,-0.0025
25,CCGGTAGA,-0.224

row,Sequence,PBM E-score
1,ACCTATAT,0.214
2,AGAGCACA,-0.151
3,TACGACCA,-0.0253
4,AGGAGACG,-0.304
5,GCGGGATA,-0.0574
6,CGCAAGAC,-0.0908
7,ATACATAA,0.309
8,GCCATATA,0.0556
9,CCACACAG,0.00077
10,GGTAAATA,0.225
11,CCAATTCA,0.0518
12,CTTAAGTA,0.128
13,CATGTGCA,-0.249
14,AGCATGGC,-0.279
15,AGTTACCA,0.0265
16,CCTGTACA,0.141
17,ACGGAGGG,-0.183
18,GCTAGACC,-0.193
19,ATGCAGGA,-0.0288
20,GTTACGTA,-0.089
21,CATAGAAA,0.23
22,AACGATGT,0.138
23,CAGGCATG,-0.1
24,AGCTCCCT,-0.289
25,GCTCTGGA,-0.0114

row,Sequence,PBM E-score
1,AGCGATCC,-0.122
2,CAGCGACG,-0.0762
3,CCAAAGAC,-0.148
4,ATAACCAG,0.105
5,ATCGCCAG,0.0383
6,AATGAGAT,0.263
7,AAGCGTAG,-0.0571
8,GTAGATAA,0.333
9,ATATCAGA,0.289
10,TCCTCCGA,-0.203
11,TCGCCGAA,0.0469
12,CGTGTTTC,-0.018
13,TAAGTCCA,0.0338
14,ACACAAGT,0.126
15,GACGCCCC,-0.25
16,CCAGATGC,-0.15
17,ATTCTCTA,0.159
18,CCGGACCG,-0.172
19,TACAAAGA,0.218
20,ACCGATAG,-0.096
21,AGCAATCC,-0.128
22,CCGGCGGA,-0.00079
